Results taken from PubChem BioAssay (NCATS).
The inconclusive results got no clear call from the source; some entries with a clear call stand among them for comparison. A potency beside an inconclusive call is a rough fit, not a confirmed value. For part of these data: “Side channel” marks fits to a control or component signal instead of the main read-out. Active and inactive are the calls of the source. Unless noted, calls follow the shape of the dose curve; as a rule, active = well fitted curve in the direction sought with a large enough effect; inconclusive = small, poorly fitted or top-dose-only effect, or another doubt; inactive = no such curve, though single readings can be large; an effect the other way counts as inactive or inconclusive.

Target: Cytochrome P450 2C9 (Homo sapiens) (UniProt P11712)
Experiment: qHTS Assay for Inhibitors and Substrates of Cytochrome P450 2C9 (AID 883); also: nearly all actives have a fitted effect of over 60% in size
Conditions: recombinant CYP2C9, luciferin-H luminescence, 60 min; series mostly up to 57.1 µM; activity change, negative = inhibition: at the top concentration
In short: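 10nM CYP2C9 + 100uM Luciferin-H (=KM), 25mM KPO4; cpd 10 min 37C; NADPH regen, 60 min 37C; stop/detect with P450 Glo-Buffer 20 min; luminescence. Norm. to 57uM sulphaphenazole as full inhibition.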
Potency is read from the fitted curve at half-maximal effect; tags tell the direction and shape of the fitted curve or compound fluorescence and quenching.

UniProt P11712, sequence (P11712 whole entry, looked up): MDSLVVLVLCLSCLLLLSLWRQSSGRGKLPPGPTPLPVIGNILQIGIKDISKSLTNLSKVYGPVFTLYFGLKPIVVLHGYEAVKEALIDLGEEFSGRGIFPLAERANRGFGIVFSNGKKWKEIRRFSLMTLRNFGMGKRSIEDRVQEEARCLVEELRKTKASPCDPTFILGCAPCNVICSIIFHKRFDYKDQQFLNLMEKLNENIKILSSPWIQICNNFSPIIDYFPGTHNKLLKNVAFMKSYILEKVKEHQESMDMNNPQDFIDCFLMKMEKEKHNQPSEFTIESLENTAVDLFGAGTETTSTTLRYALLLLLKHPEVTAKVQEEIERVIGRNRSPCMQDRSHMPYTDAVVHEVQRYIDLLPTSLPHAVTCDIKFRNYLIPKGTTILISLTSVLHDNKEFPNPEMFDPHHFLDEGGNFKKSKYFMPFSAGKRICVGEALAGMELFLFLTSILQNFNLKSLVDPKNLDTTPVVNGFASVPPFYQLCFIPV

Structure (SMILES)	Potency
CN(Cc1ccco1)c1ncnc2ccc(-c3cccc(NS(C)(=O)=O)c3)cc12	inconclusive: 0.794 µM [inhibitor, partial curve]
CN(C)c1ccc(-c2nccc(Nc3ccc(F)cc3)n2)cc1	inconclusive: 0.631 µM [inhibitor, partial curve]
CN(C)c1ncnc2ccc(-c3cccnc3)cc12	inconclusive: 1.26 µM [inhibitor, partial curve]

Target: Cytochrome P450 3A4 (Homo sapiens) (UniProt P08684)
Experiment: qHTS Assay for Inhibitors and Substrates of Cytochrome P450 3A4 (AID 884); also: nearly all actives have a fitted effect of over 50% in size
Conditions: recombinant CYP3A4, Luciferin-PPXE luminescence; activity change, negative = inhibition: at 57.1 µM (top of the series)
In short: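 20 nM human CYP3A4 with 25 uM Luciferin-PPXE (at KM) in 200 mM KPO4, preincubated 10 min with compound; NADPH regeneration started a 60 min RT reaction. Luciferin detected by luminescence, normalized to 57 uM ketoconazole as full inhibition.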

UniProt P08684, sequence (P08684 whole entry, looked up): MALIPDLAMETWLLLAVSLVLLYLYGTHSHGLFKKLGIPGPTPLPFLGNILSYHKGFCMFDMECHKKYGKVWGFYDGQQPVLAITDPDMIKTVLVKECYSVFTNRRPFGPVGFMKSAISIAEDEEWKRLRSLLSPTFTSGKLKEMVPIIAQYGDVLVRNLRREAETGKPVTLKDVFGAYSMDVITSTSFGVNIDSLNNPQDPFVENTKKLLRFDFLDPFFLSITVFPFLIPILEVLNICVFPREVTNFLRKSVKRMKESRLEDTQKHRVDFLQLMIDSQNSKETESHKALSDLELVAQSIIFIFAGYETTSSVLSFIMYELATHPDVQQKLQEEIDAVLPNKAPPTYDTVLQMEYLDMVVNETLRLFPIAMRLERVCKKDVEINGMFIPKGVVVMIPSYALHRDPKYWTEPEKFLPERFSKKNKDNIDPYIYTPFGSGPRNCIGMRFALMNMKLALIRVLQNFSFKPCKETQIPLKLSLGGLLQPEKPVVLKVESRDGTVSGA

Structure (SMILES)	Potency
FC(F)(F)c1ccccc1-c1ccc2ncnc(NCc3cccnc3)c2c1	active: 1.58 µM
CN(Cc1ccco1)c1ncnc2ccc(-c3cccc(NS(C)(=O)=O)c3)cc12	active: 5.01 µM
Cn1cc(-c2nc3cnc(N4CCOCC4)nc3n(C3CC3)c2=O)c2ccccc21	inconclusive: 7.94 µM [inhibitor, full curve]

Tested on: not listed separately
Experiment: qHTS Assay for Identification of Small Molecule Agonists for Hypoxia Response Element Signaling Pathway (AID 914; active = well fitted activation curve with a large enough effect in the signal ratio, with a control signal flat, not every such curve was filed as active; inconclusive = small, poorly fitted or top-dose-only effect, or effect the other way, or a change in a side signal; the % refers to the signal ratio; as to activation: top concentration of the series differs between compounds; % of control where 0% means no effect)
Conditions: ME-180 (cervical carcinoma) HRE-bla reporter, beta-lactamase ratio, CoCl2, 17 h; activation: active compounds read high
In short: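 AC50 values come from titration-series %Activity, taken as the 460/530nm ratio of CCF4 fluorescence (excitation 405nm). CellSensor HRE-bla ME-180 cells were treated 17 hours at 37 C with compound plus an EC50 level of CoCl2.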

Structure (SMILES)	activation	Potency
Cc1noc(C)c1-c1ccc2ncnc(Nc3ccccc3)c2c1	inconclusive: 65.6%	–
COc1cccc(Nc2ncc3nc(-c4cccs4)c(=O)n(CCC#N)c3n2)c1	–	inconclusive: 3.16 µM [inhibitor, partial curve]
CN(Cc1ccco1)c1ncnc2ccc(-c3cccc(NS(C)(=O)=O)c3)cc12	–	inconclusive: 5.01 µM [inhibitor, single point]
CCNc1ncc2nc(-c3ccc(F)cc3)c(=O)n(CCc3ccccc3)c2n1	–	active: 0.398 µM
COc1cccc(Cn2c(=O)c(C)nc3cnc(Nc4cccc(OC)c4)nc32)c1	–	inconclusive: 5.01 µM [activator, single point]
FC(F)(F)c1ccccc1-c1cncnc1NCCN1CCOCC1	–	active: 2.51 µM
CNc1ccnc(-c2ccccc2C)n1	inconclusive: -3.71%	–
CN1CCN(c2ncc3nc(-c4ccc(F)cc4)c(=O)n(C4CC4)c3n2)CC1	–	inconclusive: 5.01 µM [activator, single point]
O=c1c(-c2cccs2)nc2cnc(N3CCNCC3)nc2n1Cc1cccs1	–	inconclusive: 3.16 µM [fluorescent, side channel, partial curve]
CN(C)c1ncnc2ccc(-c3cccnc3)cc12	–	inconclusive: 5.01 µM [inhibitor, single point]

Target: Dual specificity protein kinase CLK4 (Homo sapiens) (UniProt Q9HAZ1)
Experiment: qHTS Assay for Inhibitors of CDC-like Kinase 4 (ADP-Glo Assay) (AID 1771); also: nearly all actives have a fitted effect of over 70% in size; as to activity change, negative = inhibition: % is scaled to controls: 0 for no effect and ±100 for the full control effect
Conditions: recombinant CLK4, ADP-Glo luminescence; series mostly up to 80 µM; activity change, negative = inhibition: at the top concentration
In short: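 Clk4 (25 nM) was incubated 1 hr at room temperature with 100 uM RS repeat peptide and 1 uM ATP in buffer with 2 mM MgCl2, 0.5 mM EGTA, 2.5 mM DTT. ADP formed was quantified by ADP-Glo luminescence.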

UniProt Q9HAZ1, sequence (Q9HAZ1 whole entry, looked up): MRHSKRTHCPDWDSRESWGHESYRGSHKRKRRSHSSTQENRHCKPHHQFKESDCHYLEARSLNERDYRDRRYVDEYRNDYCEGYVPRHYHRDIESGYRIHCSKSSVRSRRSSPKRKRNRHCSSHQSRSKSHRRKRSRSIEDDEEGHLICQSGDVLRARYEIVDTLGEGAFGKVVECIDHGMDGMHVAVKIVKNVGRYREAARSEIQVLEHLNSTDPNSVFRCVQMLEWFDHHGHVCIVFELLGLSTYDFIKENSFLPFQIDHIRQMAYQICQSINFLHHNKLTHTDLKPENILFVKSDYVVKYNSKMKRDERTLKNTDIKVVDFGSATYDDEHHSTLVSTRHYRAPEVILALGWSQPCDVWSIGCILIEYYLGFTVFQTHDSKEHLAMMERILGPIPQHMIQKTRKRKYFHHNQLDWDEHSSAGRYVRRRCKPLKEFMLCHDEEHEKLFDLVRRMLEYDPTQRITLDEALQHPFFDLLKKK

Structure (SMILES)	Potency	activity change, negative = inhibition
Cc1cnc(CNc2ncnc3ccc(-c4ccc(N(C)C)cc4)cc23)cn1	active: 11.2 µM	–
c1cncc(CNc2ccnc(-c3ccc4c(c3)OCO4)n2)c1	active: 0.1 µM	–
Cc1noc(C)c1-c1ccc2ncnc(Nc3ccccc3)c2c1	active: 7.94 µM	–
Cc1noc(C)c1-c1nc(NC2CCNCC2)c2ccccc2n1	active: 28.2 µM	–
COc1cccc(-c2nccc(NCc3ccc(OC)cc3OC)n2)c1	inconclusive: 31.6 µM [falling, single point]	–
FC(F)(F)c1ccccc1-c1ccc2ncnc(NCc3cccnc3)c2c1	inconclusive: 31.6 µM [falling, single point]	–
COc1cccc(Nc2ncc3nc(-c4cccs4)c(=O)n(CCC#N)c3n2)c1	inconclusive: 31.6 µM [falling, partial curve]	–
CN(Cc1ccco1)c1ncnc2ccc(-c3cccc(NS(C)(=O)=O)c3)cc12	active: 7.94 µM	–
CC(=O)NCCNc1nc(-c2cccc(C#N)c2)nc2ccccc12	inconclusive: 25.1 µM [falling, partial curve]	–
CN1CCN(c2ncc3ncc(=O)n(-c4ccccc4)c3n2)CC1	inconclusive: 31.6 µM [falling, single point]	–
CCNc1ncc2nc(-c3ccc(F)cc3)c(=O)n(CCc3ccccc3)c2n1	–	inactive: -9.56%
Cc1noc(C)c1-c1nccc(NCc2ccccc2)n1	inconclusive: 35.5 µM [falling, partial curve]	–
COc1cccc(Cn2c(=O)c(C)nc3cnc(Nc4cccc(OC)c4)nc32)c1	inconclusive: 7.08 µM [falling, full curve]	–
COc1ccccc1-c1ccc2ncnc(NCCN3CCOCC3)c2c1	active: 17.8 µM	–
COc1ccc(-c2nc3cnc(OC)nc3n(C)c2=O)cc1	–	inactive: 3.75%
CN1CCN(c2ncc3nc(-c4cccc(C#N)c4)c(=O)n(C)c3n2)CC1	inconclusive: 35.5 µM [falling, single point]	–
CN(C)C(=O)c1ccc(-c2nc(-n3ccnc3)c3ccccc3n2)cc1	inconclusive: 10 µM [falling, partial curve]	–
CN(Cc1ccco1)c1ncnc2ccc(-c3ccccc3C#N)cc12	active: 7.08 µM	–

Structure (SMILES)	Potency	activity change, negative = inhibition
FC(F)(F)c1ccccc1-c1cncnc1NCCN1CCOCC1	–	inactive: 4.33%
COc1cccc(Cn2c(=O)c(C)nc3cnc(N(C)C)nc32)c1	–	inactive: -0.0819%
O=c1cnc2cnc(N3CCNCC3)nc2n1C1CC1	–	inactive: -4.83%
CNc1ccnc(-c2ccccc2C)n1	–	inactive: -4.49%
COc1ccccc1CNc1cc(-c2cccnc2)ncn1	active: 31.6 µM	–
CN1CCN(c2ncc3nc(-c4ccc(F)cc4)c(=O)n(C4CC4)c3n2)CC1	–	inactive: -0.945%
c1ccc2c(NCCN3CCOCC3)nc(-c3ccc4c(c3)OCO4)nc2c1	inconclusive: 28.2 µM [falling, single point]	–
COc1cccc(-c2nc(NCCN3CCOCC3)c3ccccc3n2)c1	active: 15.8 µM	–
COc1cccc(Cn2c(=O)c(CCc3ccccc3)nc3cnc(N4CCN(C)CC4)nc32)c1	–	inactive: -1.7%
CNc1nc(-c2ccccc2CN(C)C)nc2ccccc12	–	inactive: -15.5%
CN(C)c1nc(-c2ccc3c(c2)OCO3)nc2ccccc12	inconclusive: 15.8 µM [falling, single point]	–
Cn1cc(-c2nc3cnc(N4CCOCC4)nc3n(C3CC3)c2=O)c2ccccc21	–	inactive: -0.296%
COc1ccc(Oc2ncc3nc(-c4ccc(Cl)cc4)c(=O)n(C4CC4)c3n2)cc1	–	inactive: 0.494%
O=c1c(-c2cccs2)nc2cnc(N3CCNCC3)nc2n1Cc1cccs1	inconclusive: 31.6 µM [falling, single point]	–
CN(C)c1ccc(-c2nccc(Nc3ccc(F)cc3)n2)cc1	active: 14.1 µM	–
CN(C)c1ncnc2ccc(-c3cccnc3)cc12	active: 7.08 µM	–
COc1ccc(Oc2ncc3nc(-c4cccc(C#N)c4)c(=O)n(CCC#N)c3n2)cc1	–	inactive: -10.2%
